According to PubChem BioAssay AID488969 (Vanderbilt High Throughput Screening Facility, 2010):
The full ranking holds about 110,000 compounds; the median of “z-score” is about -0.1, and the highest 2% start at about 2. This is one part of the list. Calls of active or inactive are those of the source.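 Rule for the calls: active = z-score in the third read window above 3 or below -3; inactive = the rest.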

target: Metabotropic glutamate receptor 8 (Rattus norvegicus) (UniProt P70579); test: mGluR8 Gi/Go-coupled signaling modulation – cell-based, rat, thallium flux, HTS, primary screen (AID 488969); settings: HEK293 rat mGluR8, GIRK (G protein-gated inwardly rectifying potassium channel) thallium flux, FluoZin2; at 10 µM; stronger effect = higher value; submaximal glutamate (EC20) added with thallium
UniProt P70579, sequence (P70579 whole entry, looked up): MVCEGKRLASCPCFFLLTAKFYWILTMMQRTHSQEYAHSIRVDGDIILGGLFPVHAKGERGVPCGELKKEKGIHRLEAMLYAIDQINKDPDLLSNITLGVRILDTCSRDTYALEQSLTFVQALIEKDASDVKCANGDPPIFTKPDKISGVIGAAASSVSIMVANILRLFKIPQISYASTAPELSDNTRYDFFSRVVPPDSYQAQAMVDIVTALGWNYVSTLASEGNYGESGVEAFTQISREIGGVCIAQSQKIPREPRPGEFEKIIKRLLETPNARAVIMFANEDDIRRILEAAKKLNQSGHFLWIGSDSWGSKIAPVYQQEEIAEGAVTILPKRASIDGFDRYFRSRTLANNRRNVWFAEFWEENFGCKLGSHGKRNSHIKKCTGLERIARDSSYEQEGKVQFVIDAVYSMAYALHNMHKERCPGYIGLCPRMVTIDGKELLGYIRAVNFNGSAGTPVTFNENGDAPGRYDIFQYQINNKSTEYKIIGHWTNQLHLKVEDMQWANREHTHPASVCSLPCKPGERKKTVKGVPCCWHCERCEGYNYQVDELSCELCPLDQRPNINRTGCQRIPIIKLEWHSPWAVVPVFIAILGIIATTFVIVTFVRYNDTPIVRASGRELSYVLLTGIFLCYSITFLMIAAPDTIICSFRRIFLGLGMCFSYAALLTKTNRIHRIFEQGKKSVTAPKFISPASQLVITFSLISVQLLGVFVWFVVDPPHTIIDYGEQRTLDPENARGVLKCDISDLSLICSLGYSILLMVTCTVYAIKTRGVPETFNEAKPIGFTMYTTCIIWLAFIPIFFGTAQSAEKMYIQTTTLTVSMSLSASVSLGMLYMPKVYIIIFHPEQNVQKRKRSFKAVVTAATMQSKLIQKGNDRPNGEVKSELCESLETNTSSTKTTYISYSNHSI

Row | SMILES | z-score
1 | COC(=O)c1sccc1NC(=O)CN(C)NS(=O)(=O)c1ccc(F)cc1 | -0.846
2 | O/N=C\c1cccn1-c1ccc(Br)cc1 | -0.477
3 | COc1cc(NC(=O)c2cccc([N+](=O)[O-])c2C)ccc1NC(=O)c1ccco1 | -0.0609
4 | Cc1cccc(Nc2nc(N)nc(CN3CCN(c4ccccc4F)CC3)n2)c1 | 0.309
5 | OCCN1CCN(C(=S)c2ccc(Cl)cc2)CC1 | -0.061
6 | O=C(CCC(=O)OCC(=O)c1cccc([N+](=O)[O-])c1)Nc1ccccc1Cl | 0.0825
7 | CS(=O)(=O)N(Cc1ccc(C(=O)Nc2ccccc2Sc2ccccc2)cc1)c1ccccc1 | -0.197
8 | Cc1cc(/C([O-])=C(/C(=S)Nc2ccccc2)[n+]2ccccc2)c(C)n1-c1ccccc1 | -0.3
9 | c1ccc(-c2nnc(SCc3nc4ccccc4[nH]3)n2Cc2ccco2)cc1 | -0.166
10 | CCCS(=O)(=O)N1CCN(C(=O)COc2ccccc2)CC1 | -0.226
11 | COc1ccc2c(c1OC)C(=O)N(c1ccc(C)c(C)c1)C2=O | 0.105
12 | CNc1ccc(C(O)(C(F)(F)F)C(F)(F)F)cc1C(O)(C(F)(F)F)C(F)(F)F | -0.247
13 | O=C(c1cccc(-c2ccc(O)cc2)c1)N1CCOCC1 | -0.37
14 | CCCCNS(=O)(=O)c1ccc(NC(=O)C(Sc2ccccc2)c2ccccc2)cc1 (stereo unspecified) | 0.179
15 | C=C(C)Cn1c(CCNC(=O)C(C)C)nc2ccccc21 | -0.19
16 | N#Cc1ccc(C(=O)Nc2ccn(-c3ccccc3)n2)cc1 | -0.322
17 | CC12CCC(C(=O)Nc3ncc([N+](=O)[O-])s3)(OC1=O)C2(C)C (stereo unspecified) | 1.12
18 | Nc1nc2c(c3c1c(=O)oc1ccccc13)CCCCC2 | -1.02
19 | CCOC(=O)Cc1csc(NC(NC(=O)OCC)(C(F)(F)F)C(F)(F)F)n1 | -0.104
20 | Cc1ccc(C(=O)OCC(=O)Nc2ccccc2Sc2ccccc2)cc1C | -0.191
21 | CN1CCN(C(=O)Nc2cccc3ccccc23)CC1 | active: 3.3
22 | CCn1c(CSc2nnc(C)n2-c2ccccc2)nc2cc(S(=O)(=O)N(C)C)ccc21 | -0.251
23 | CCN(CCO)c1ccc(-n2c(N)c(C(=O)OC)c3nc4ccccc4nc32)cc1 | -0.823

Row | SMILES | z-score
24 | O=C(c1cc2c(s1)-c1ccccc1OC2)N1CCCC1 | -0.73
25 | CO/N=C/c1ccc(Oc2ccc(C)cc2)nc1 | -0.345
26 | O=C(c1cccc(C(F)(F)F)c1)N1CCC(O)(CS(=O)(=O)Cc2ccccc2)CC1 | 0.123
27 | CCCCOc1ccc(C(=O)N2CCCCCC2)cc1 | 0.0779
28 | CC(=O)Nc1ccc(NC(=O)Cn2cnc3c(cnn3C(C)(C)C)c2=O)cc1 | -0.329
29 | CC1(c2ccccc2)CC(C)(C)N(C(=O)CSc2nnc(N)s2)c2ccccc21 (stereo unspecified) | -0.521
30 | CCOC(=O)C(Sc1n[nH]c(N)n1)c1ccccc1 (stereo unspecified) | -0.282
31 | Cc1ccc2[nH]cc(C(=O)CCl)c2c1 | -0.0638
32 | CCOc1ccc(NC(=O)C(C)O)c(NS(=O)(=O)c2ccc(CCNC(C)=O)cc2)c1 (stereo unspecified) | -0.0891
33 | CS(=O)(=O)N1CCN(C2Cc3ccccc3C2)CC1 | -0.16
34 | CCC(=O)Nc1ccc(C(=O)CSc2nc3ccc(C)cc3[nH]2)cc1 | -0.633
35 | CSCC[C@H](NC(=O)CCn1nnc2ccccc2c1=O)C(=O)O | -0.473
36 | O=C1OC(c2ccccc2)=N/C1=C\N1CCCCC1 | 0.0708
37 | CCN(Cc1ccccc1)C(=O)CCCOc1ccccc1 | 0.0708
38 | CCCCN(CC)CCNS(=O)(=O)c1ccc2c(c1)oc(=O)n2C | -0.341
39 | CC1Cc2ccccc2N1Cc1cc(=O)n2ccsc2n1 (stereo unspecified) | 0.202
40 | CN(C)CCC(=O)c1ccc2c(c1)OCO2 | -0.297
41 | CCN1CCN(CCC(=O)Nc2ccccc2OC)CC1 | -1.36
42 | CC(=O)OC(C(=O)Nc1ccccc1C)C(OC(C)=O)C(OC(C)=O)C(OC(C)=O)C(=O)Nc1ccccc1C (stereo unspecified) | -0.014
43 | COC(=O)/C(=C\C(=O)c1ccccc1)Nc1cccc(C(F)(F)F)c1 | 0.432
44 | O=C(NCc1ccccn1)c1ccc(CNS(=O)(=O)c2cccc(Cl)c2)cc1 | -0.352
45 | COc1ccc(-n2c3c(cc(C(=O)N4CCC(C)CC4)c2=O)C(=O)CC(C)(C)C3)cc1 | -0.382
46 | C=CCNC(=S)NNC(=O)c1ccccc1 | -0.00102

Row | SMILES | z-score
47 | N#Cc1c(NC(=O)CSc2ccccn2)oc(-c2ccccc2)c1-c1ccccc1 | -0.344
48 | CC1CCN(C(=O)Cn2cc(C#N)c3ccccc32)CC1 | -0.156
49 | Cc1ccccc1OCC(O)Cn1c(NCc2ccco2)nc2c1c(=O)[nH]c(=O)n2C (stereo unspecified) | -1.06
50 | COc1ccc(C2C(C(C)=O)=C(O)C(=O)N2CCO)c(OC)c1 (stereo unspecified) | -0.182
51 | O=c1[nH]c2cc3c(cc2cc1C(c1nnnn1CC1CCCO1)N1CCCCCC1)OCCO3 (stereo unspecified) | -0.542
52 | Cc1noc(C)c1C(=O)Nc1ccccc1-c1ccccc1 | 0.0781
53 | Cc1cc(C)n(C(=O)c2ccc(C)o2)n1 | -0.224
54 | O=C(NCc1ccccn1)c1cc2ccccn2n1 | 0.0675
55 | COc1cccc(C2C=C(c3ccc(OC)cc3OC)Nc3nnnn32)c1 (stereo unspecified) | -0.65
56 | COC(=O)CC1COc2ccccc2N1C(=O)c1ccc(C(C)(C)C)cc1 (stereo unspecified) | -0.191
57 | O=C1/C(=C\c2ccc(Br)o2)SC(=Nc2ccccc2)N1c1ccccc1 | -0.222
58 | O=C(O)C1CCCCN1S(=O)(=O)c1ccc(Cl)s1 (stereo unspecified) | -0.235
59 | O=C1/C(=C/c2cccnc2)SC(=S)N1c1ccccc1 | -0.374
60 | O=C(COC(=O)c1cccnc1Cl)NCc1ccc2c(c1)OCO2 | -0.0987
61 | CCOC(=O)N1CCC(NC(=O)CCc2c(C)nc3c(c(C)nn3C(C)(C)C)c2C)CC1 | -0.421
62 | Cc1ccc(-n2nc3c(c2NC(=O)CCC2CCCCC2)CS(=O)C3)cc1 (stereo unspecified) | -0.015
63 | CC(C)OCCCNC(=O)c1cc2c(s1)CS(=O)(=O)C2 | -0.548
64 | Cn1c(COc2ccc3ccccc3c2)nnc1SCC(=O)OC1CCCCC1 | -0.0345
65 | O=C/C(=C\Nc1ccccn1)c1nc2ccccc2o1 | 0.716
66 | CC(=C/c1ccco1)/C=N/N1CCN(c2ccccc2)CC1 | -0.195
67 | Cc1oc(-c2ccccc2)[n+]([O-])c1C | -0.00439
68 | COCCn1cc(C(=O)N2CCCC(C)C2)c2c3ccccc3n(C)c2c1=O (stereo unspecified) | -0.26
69 | COc1cccc(C=NCCNC(=O)c2nonc2N)c1O | -1.24

Row | SMILES | z-score
70 | CC(C(=O)Nc1ccc(C(=O)O)cc1)N1C(=O)c2ccccc2C1=O (stereo unspecified) | 0.789
71 | CCc1nc2ccccc2n(CC)c1=O | -0.551
72 | CC(/C=N/NC(=O)c1cc(-c2ccc3ccccc3c2)n[nH]1)=C\c1ccco1 | -0.175
73 | Cc1ccccc1N1C(=O)[C@@H]2Cc3ccccc3CN2C1=O | 0.85
74 | CCOc1ccccc1C1CC(c2ccc(F)cc2)Nc2nc(N)nn21 (stereo unspecified) | -0.0345
75 | CC(C)(C)n1nnnc1CN1CCN2CCCC2C1 (stereo unspecified) | 0.084
76 | COc1ccc(OC)c(N(CC(=O)NC2CC2)S(=O)(=O)c2ccc(C)cc2)c1 | 0.0301
77 | Cc1cc(C)c2nc(NC(=O)C3CCCO3)sc2c1 (stereo unspecified) | 0.217
78 | O=C(Nc1ccccc1)C1C2CCC3C(CCC21)C3(Cl)Cl (stereo unspecified) | -0.0996
79 | CCn1ccnc1C(O)c1cccc(OC)c1OC (stereo unspecified) | -0.235
80 | CCOc1ccc(Cc2nnc(SCC(=O)c3ccc(OC)cc3)o2)cc1 | 0.187
81 | CNC(=O)c1ccsc1NC(=O)c1ccc(Cl)s1 | 1.49
82 | N=c1c(C(=O)NCc2ccco2)cc2c(=O)n3ccccc3nc2n1CCc1ccccc1 | active: 4.11
83 | N#Cc1ccc(-c2ccccc2)nc1Sc1ccc(F)cc1 | -0.3
84 | O=C(NCCc1ccc(Cl)cc1)C1CCN(S(=O)(=O)c2cccs2)CC1 | -0.0567
85 | O=c1cc(-c2ccccc2)n(S(=O)(=O)c2ccccc2)o1 | 0.355
86 | O=C(c1c(F)c(F)c(F)c(F)c1F)N1CCN(c2cccc(C(F)(F)F)c2)CC1 | 0.255
87 | COCCCNC(=O)CC1Oc2ccccc2NC1=O (stereo unspecified) | -0.27
88 | COc1ccc(NC(=O)Cc2c(Sc3ccccc3)c3ccccc3n2C)cc1 | 1.3
89 | O=C(Nc1ccc2ccccc2c1)c1ccc(NS(=O)(=O)c2ccc(Br)s2)cc1 | 0.117
90 | COC(=O)C(CC(=O)c1ccc(Cl)cc1)c1ccc(C)cc1 (stereo unspecified) | -0.155
91 | COc1ccc(C(=O)NC2CCN(C(=S)Nc3cc(C)cc(C)c3)CC2)cc1 | -0.0457
92 | CCCCn1c(SCC(=O)Nc2cc(C)on2)nnc1-c1ccco1 | 1.3

Row | SMILES | z-score
93 | CCN(CC)S(=O)(=O)c1cccc(C(=O)N2CC(O)CC2C(=O)OC)c1 (stereo unspecified) | -0.00902
94 | CC(C)c1ccc2c(c1)C1(NN=C(c3ccccc3)S1)C(=O)N2 (stereo unspecified) | 0.979
95 | CCOC(=O)c1c(-c2ccc(C)o2)csc1N | 0.883
96 | COc1ccc2[nH]c(=O)c(CN(Cc3ccccc3)Cc3nnnn3CC3CCCO3)cc2c1 (stereo unspecified) | -0.572
97 | COc1cc(/C=N/NC(=S)Nc2cccc(C(=O)O)c2)cc(OC)c1OC | -0.062
98 | CC1=C(C(=O)NCc2ccccc2)C(c2ccc(C)o2)n2ncnc2N1 (stereo unspecified) | -0.0762
99 | Cc1ccccc1CCNC(=O)C1CCN(S(=O)(=O)c2ccc(-n3cnnn3)cc2)CC1 | -0.299
100 | Cc1ccc(S(=O)(=O)N2CCC(C(=O)N[C@H](C(=O)NC3CCS(=O)(=O)C3)C(C)C)CC2)cc1 (stereo partly specified) | -0.265
101 | COC(=O)c1cc(C(=O)OC)n(Cc2ccc(F)cc2)n1 | -0.248
102 | CC(NC(=O)c1cc(-c2ccc(Br)cc2)on1)c1ccccc1 (stereo unspecified) | -0.926
103 | Nc1nonc1/C(=N/O)N1CCCC1 | -0.326
104 | COc1ccc(Cl)cc1N(CC(=O)N1CCC(C)CC1)S(C)(=O)=O | 0.568
105 | CC1(C)CC(=O)c2cnc(N)nc2C1 | -0.555
106 | O=C(c1ccccc1)c1nn(-c2ccc(Cl)cc2)cc1C(=O)c1cc2ccccc2oc1=O | -0.071
107 | CCOC(=O)c1c(C)c(C(=O)N2CCN(c3cccc(Cl)c3)CC2)c(C)n1C | -0.749
108 | Clc1ccc(-c2cn3c(n2)CCC3)cc1 | -0.273
109 | Cn1c(=NC(=O)c2ccco2)sc2cccc(F)c21 | 0.0422
110 | CCCCC12CN3CC(C)(CN(C1)C31C(=O)N(C)c3ccc(C)cc31)C2=O (stereo unspecified) | 0.0179
111 | COc1c(N2CCN(C(=S)NCc3ccccc3)C(C)C2)c(F)cc2c(=O)c(C(=O)O)cn(C3CC3)c12 (stereo unspecified) | -0.51
